# Laboratory results as given in paper PMC4336329 (PLoS ONE, 2015).
# Screen size: about 310,000 compounds; about 2,200 (0.71%) showed an effect of 50% or more. Effects have a minus sign here. Some of the results follow.
# Molecular target: human ether-à-go-go-related gene (hERG) potassium channel (human, UniProt Q12809)
# Assay: primary screen, population patch clamp on CHO cells stably expressing hERG
# Chain of human ether-à-go-go-related gene (hERG) potassium channel (Q12809 whole entry, looked up): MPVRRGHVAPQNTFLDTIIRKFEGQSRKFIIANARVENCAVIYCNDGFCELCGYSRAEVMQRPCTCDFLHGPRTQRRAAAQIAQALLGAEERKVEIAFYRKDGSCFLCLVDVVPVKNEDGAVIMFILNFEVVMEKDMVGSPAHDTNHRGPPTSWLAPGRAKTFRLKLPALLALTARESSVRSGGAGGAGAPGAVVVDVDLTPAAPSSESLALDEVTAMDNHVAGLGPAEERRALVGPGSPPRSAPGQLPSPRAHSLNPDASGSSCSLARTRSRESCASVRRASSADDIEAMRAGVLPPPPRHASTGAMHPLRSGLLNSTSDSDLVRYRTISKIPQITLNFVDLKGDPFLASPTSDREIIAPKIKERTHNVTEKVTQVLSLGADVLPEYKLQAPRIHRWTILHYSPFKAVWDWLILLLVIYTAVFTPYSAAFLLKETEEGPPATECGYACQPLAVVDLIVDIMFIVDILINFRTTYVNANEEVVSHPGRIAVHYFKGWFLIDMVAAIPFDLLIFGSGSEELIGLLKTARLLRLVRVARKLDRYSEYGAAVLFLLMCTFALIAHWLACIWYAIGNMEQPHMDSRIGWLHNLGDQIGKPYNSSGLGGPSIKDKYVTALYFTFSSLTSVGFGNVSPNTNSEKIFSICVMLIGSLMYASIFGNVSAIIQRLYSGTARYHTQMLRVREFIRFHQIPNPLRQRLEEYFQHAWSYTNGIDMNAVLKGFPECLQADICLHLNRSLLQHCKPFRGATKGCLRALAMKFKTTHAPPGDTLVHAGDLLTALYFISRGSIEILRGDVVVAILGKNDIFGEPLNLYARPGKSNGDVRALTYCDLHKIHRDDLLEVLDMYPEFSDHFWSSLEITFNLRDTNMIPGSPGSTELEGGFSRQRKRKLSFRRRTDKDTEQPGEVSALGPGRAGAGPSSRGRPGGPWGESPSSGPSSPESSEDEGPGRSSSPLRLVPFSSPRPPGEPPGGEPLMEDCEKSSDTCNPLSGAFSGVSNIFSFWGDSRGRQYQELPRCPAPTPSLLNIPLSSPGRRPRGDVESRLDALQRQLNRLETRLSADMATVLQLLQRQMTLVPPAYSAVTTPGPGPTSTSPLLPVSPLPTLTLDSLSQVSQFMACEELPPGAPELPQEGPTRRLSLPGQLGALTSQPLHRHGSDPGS
row,Structure (SMILES),"hERG current change (%, negative = inhibition) at 1uM"
1,CCOC(=O)c1c(-c2ccccc2)c2cc(OC)ccc2n1CCCN(C)C.Cl,-27.3%
2,CCCNS(=O)(=O)c1ccc(OCC(=O)N(C)Cc2ccccc2)cc1,9.25%
3,COc1cc2cc(C(=O)N(C)Cc3ccccc3)[nH]c2cc1OC,7.93%
4,CCCNC(=O)C(=O)Nc1ccc2c(c1)N(S(=O)(=O)c1cccs1)CCC2,-3.79%
5,Cc1cc(NC(=O)c2ccc(NC(=O)CC(C)C)cc2)no1,-7.27%
6,CC1(C)CC(=O)C=C(Nc2ccccc2)C1,8.86%
7,CN(C)CCN(C(=O)c1ccc(S(=O)(=O)N(C)c2ccccc2)cc1)c1nc2cc3c(cc2s1)OCO3.Cl,10.4%
8,COc1ccc(-c2nc(CS(=O)CC(=O)NCCCN3CCOCC3)c(C)o2)cc1OC (centres unmarked),14%
9,COC(=O)CSC1=C(C#N)C(c2ccccc2OC)C(C(=O)OC)C(=O)N1 (centres unmarked),8.52%
10,O=C1CC(SC(=Nc2ccccc2)Nc2ccccc2)C(=O)N1c1ccc(Cl)cc1 (centres unmarked),12.7%
11,O=C(COC(=O)C1CCN(S(=O)(=O)c2cccs2)CC1)Nc1ccccc1Br,-0.345%
12,C=CCn1c2ccccc2c2nnc(SCC(=O)NC(C(=O)OC)C(C)C)nc21 (centres unmarked),1.83%
13,Cc1cccc(N2C(=O)CN(Cc3ccccc3)C2=S)c1,2.63%
14,C=CCc1cccc(/C=N/NC(=O)CCC(=O)Nc2ccc(C)cc2)c1O,9.4%
15,CCC/C=C(\CCC)C(NC(=O)CCc1ccccc1)c1ccc(C(F)(F)F)cc1 (centres unmarked),11%
16,Cc1ccc2nc(SCc3cn4cccnc4n3)[nH]c2c1,3.82%
17,Cc1cc(C)nc(NS(=O)(=O)c2ccc(NC(=O)C(C)C)cc2)n1,14.4%
18,Nc1nc(-c2ccccc2)c(-c2ccc([N+](=O)[O-])cc2)s1,10.6%
19,CC(=O)Nc1ccc(NC(=O)C(C)OC(=O)C2CC3C=CC2C3)cc1 (centres unmarked),4.38%
20,CCOC(=O)C1CCCN(C(=O)c2cc(S(=O)(=O)N3CCCCC3)ccc2C)C1 (centres unmarked),6.78%
21,OCCN(Cc1ccccc1)CC1CC=CCC1 (centres unmarked),10.2%
22,CCO[C@H]1OC(C(=O)Nc2ccccc2)=C[C@@H](c2ccc(Br)cc2)[C@@H]1CCCO,15.3%

row,Structure (SMILES),"hERG current change (%, negative = inhibition) at 1uM"
1,CC(C)(C)NC(=O)Cn1nnc(-c2ccc(OCc3c(F)cccc3Cl)cc2)n1,14.3%
2,COc1ccc(C(=O)/C=C(\C)Nc2ccc(NC(C)=O)cc2)cc1,7.53%
3,O=C1C(=O)N(CCN2CCOCC2)C(c2ccccn2)/C1=C(/O)c1ccc(Cl)cc1 (centres unmarked),2.46%
4,Cn1nccc1C(=O)NC1CCN(Cc2ccccc2)CC1,3.26%
5,COc1ccc(Br)cc1/C=N/NC(=O)Cn1nnnc1N,15.5%
6,CCCc1cc(C(=O)Nc2cccc(Cl)c2C)no1,1.64%
7,Cc1ccc(C(=O)CC(c2cccs2)S(=O)(=O)c2ccc(C)cc2)cc1 (centres unmarked),5.62%
8,Cc1ccc(Nc2nc3nonc3nc2N(C)C)cc1,7.6%
9,Cc1ccc(NC(=O)CCSc2ccccn2)cc1,5.81%
10,Cc1cc(Cl)ccc1NNC(=O)c1cccs1,11%
11,COc1ccc(-c2nc(CN3CCCC(C(=O)NC4CCCC4)C3)c(C)o2)cc1 (centres unmarked),-53.5%
12,CCCNC(=S)Nc1cc2oc3ccccc3c2cc1OC,7.75%
13,Cc1c(O)ccc2c(CN3CCN(Cc4ccccc4)CC3)cc(=O)oc12,-7.98%
14,COC(=O)c1c(NC(=O)CSc2n[nH]c(N)n2)sc(C)c1C,10.3%
15,CCN(C(=O)COC(=O)c1ccc(N2C(=O)c3ccccc3C2=O)cc1)C1CCS(=O)(=O)C1 (centres unmarked),16.5%
16,CC(=O)Nc1ccc(Nc2nc(-c3ccccc3)nc3ccccc23)cc1,4.41%
17,COC(=O)c1cn[nH]c1NC(=S)Nc1ccc(C)cc1Cl,7.19%
18,Cc1ccccc1NC(=O)COC(=O)Cc1ccsc1,7.87%
19,O=C(NC1C(=O)NNC1c1ccccc1)c1ccc(F)cc1 (centres unmarked),16.4%
20,Cc1ccc(OCC(=O)Nc2ccc(S(=O)(=O)N3CCCC3)cc2)cc1,17%
21,CC(C)C(O)(C#CCN1CCCCC1)C(C)C,-3.07%
22,CCc1nc(SCc2ccc(C(=O)OC)o2)c2c(=O)n(C)c(=O)n(C)c2n1,7.13%
